From the supplement of paper PMC3334620
In all, about 33,000 sequences were measured (“E-score (-0.5 to 0.5)”: median about -0.054, highest 2% from about 0.39 on). Some of the results follow.

Each sequence was assayed against Ylr278c (UniProt Q05854) (assay: PBM E-score (8-mer binding enrichment) (E-score (-0.5 to 0.5)); higher = stronger / more preferred TF binding; most listed sequences are background and not binding sites). Conditions: protein concentration: 200 nM; construct: GST-DNA-binding domain.
Method in brief: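 Detection of bound protein used fluorescent anti-GST, with scans normalised by masliner. The proteins were GST-tagged yeast transcription factors applied at about 100-200 nM to universal all-10-mer Agilent arrays made double-stranded by primer extension. Each ungapped eight-base word, pooled with its reverse complement, was scored with an E-score from the Universal PBM Analysis Suite.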
In the case of CTACTTCC, the “PBM E-score” value is reported as 0.0966.
In the case of TAGTGATA, the “PBM E-score” value is reported as -0.399.
CGAGGTAC was tested, and the “PBM E-score” value was -0.0988.
In the case of AAATGGGC, the “PBM E-score” value is reported as -0.0956.
In the case of ATATTCTA, the “PBM E-score” value is reported as -0.0831.
With CATATGTA the “PBM E-score” value was -0.253.
In the case of GACGTAGC, the “PBM E-score” value is reported as -0.133.
With ACGCTACG the “PBM E-score” value was -0.126.
With CTGTCCTC the “PBM E-score” value was -0.117.
For GTCAGGTA, the “PBM E-score” value was -0.106.
With ATAGAGCA the “PBM E-score” value was -0.246.
With GTATGTGA the “PBM E-score” value was -0.198.
For CGTAAACA, the “PBM E-score” value was 0.013.
With TCCCTTCA the “PBM E-score” value was -0.271.
With ACACCCAG the “PBM E-score” value was -0.171.
For AATAAGGG, the “PBM E-score” value was -0.237.
In the case of CTATCCAA, the “PBM E-score” value is reported as -0.171.
With AACATCGG the “PBM E-score” value was 0.244.
For CACATCGG, the “PBM E-score” value was 0.242.
In the case of GGCACCTA, the “PBM E-score” value is reported as 0.0118.
AGCATCTA was tested, and the “PBM E-score” value was -0.163.
With AGAGAATA the “PBM E-score” value was 0.101.
For AAACATTG, the “PBM E-score” value was -0.18.
In the case of AGTAATTC, the “PBM E-score” value is reported as 0.205.
For AGTCGAGC, the “PBM E-score” value was -0.257.
With TGTATACA the “PBM E-score” value was -0.0606.
GTGCATTA was tested, and the “PBM E-score” value was -0.136.
GCAGCCTA was tested, and the “PBM E-score” value was -0.268.
For ATTTAAGC, the “PBM E-score” value was 0.00622.
CGAATCCA was tested, and the “PBM E-score” value was -0.0549.
With TAGTAACA the “PBM E-score” value was -0.119.
For AAATTGTA, the “PBM E-score” value was -0.0715.
For ACGAGTTA, the “PBM E-score” value was -0.0893.
For CCCCAAGA, the “PBM E-score” value was -0.175.
In the case of GCAGCTTA, the “PBM E-score” value is reported as -0.245.
CGCTATTC was tested, and the “PBM E-score” value was 0.0769.
For AATGCCTC, the “PBM E-score” value was -0.107.
CAGCCGTC was tested, and the “PBM E-score” value was -0.0634.
For ATTGTATG, the “PBM E-score” value was -0.088.
In the case of TAATTGCA, the “PBM E-score” value is reported as -0.0368.
For ATACCGCC, the “PBM E-score” value was 0.249.
ATCTGGCC was tested, and the “PBM E-score” value was 0.149.
GTCTTGTA was tested, and the “PBM E-score” value was -0.15.
In the case of GTCTAGAC, the “PBM E-score” value is reported as -0.328.
CCTCCCAC was tested, and the “PBM E-score” value was -0.0054.
With TAATGGTA the “PBM E-score” value was -0.0717.
For CTTATGCA, the “PBM E-score” value was -0.227.
GTAAGTAC was tested, and the “PBM E-score” value was -0.0225.
AGGTTCTC was tested, and the “PBM E-score” value was 0.118.
For CTTCGGCA, the “PBM E-score” value was 0.274.
With ACCAAATC the “PBM E-score” value was -0.0479.
AGATTACC was tested, and the “PBM E-score” value was 0.0388.
CCACCCAC was tested, and the “PBM E-score” value was -0.0738.
For AGTGAGGC, the “PBM E-score” value was -0.0279.
GCCTGCTA was tested, and the “PBM E-score” value was -0.164.
For AGCACGAA, the “PBM E-score” value was -0.00404.
In the case of TCAAACGA, the “PBM E-score” value is reported as -0.134.
With GACATATA the “PBM E-score” value was 0.0273.
For CATTTTAC, the “PBM E-score” value was 0.106.
With ATTCATTC the “PBM E-score” value was -0.00171.
With AGGCCCCT the “PBM E-score” value was -0.194.
TACTGCGA was tested, and the “PBM E-score” value was -0.164.
For CACGGACA, the “PBM E-score” value was 0.317.
For GAGACTTA, the “PBM E-score” value was -0.198.
With AGCCATAA the “PBM E-score” value was -0.243.
With AGACATCC the “PBM E-score” value was -0.00827.
For CTCCATGA, the “PBM E-score” value was -0.0702.
For AAGCGTAA, the “PBM E-score” value was -0.0513.
In the case of AGTCACGA, the “PBM E-score” value is reported as -0.199.
In the case of CGTTACTA, the “PBM E-score” value is reported as -0.109.
With CCGGAGGC the “PBM E-score” value was 0.433.
With CTCTCACA the “PBM E-score” value was -0.141.
For GTGTGCCA, the “PBM E-score” value was -0.0713.
With CTGTGAGA the “PBM E-score” value was -0.304.
With AAGCGCTC the “PBM E-score” value was -0.0922.
ATTCCTAC was tested, and the “PBM E-score” value was -0.0128.
In the case of AAGTCAAT, the “PBM E-score” value is reported as -0.113.
For ATTATCCG, the “PBM E-score” value was 0.393.
For AAGACCGA, the “PBM E-score” value was 0.277.
With AGCGCTAT the “PBM E-score” value was 0.0792.
For CGTTCTGA, the “PBM E-score” value was -0.194.
GCAGTTCA was tested, and the “PBM E-score” value was -0.0741.
With AGAACTCG the “PBM E-score” value was -0.0727.
For CAGGTTTC, the “PBM E-score” value was -0.0498.
In the case of CCGGGTTA, the “PBM E-score” value is reported as 0.353.
CTCATTCC was tested, and the “PBM E-score” value was 0.133.
In the case of ACATACCA, the “PBM E-score” value is reported as -0.0481.
In the case of GGTCGGGA, the “PBM E-score” value is reported as 0.268.
AACGTTAT was tested, and the “PBM E-score” value was -0.109.
With ATTGCGGG the “PBM E-score” value was 0.24.
CCGGATCG was tested, and the “PBM E-score” value was 0.396.
For ACGTAACT, the “PBM E-score” value was -0.264.
For AGTATTTG, the “PBM E-score” value was -0.217.
In the case of GATGACGC, the “PBM E-score” value is reported as -0.146.
With AGAGCAAC the “PBM E-score” value was -0.322.
For CGCATGGC, the “PBM E-score” value was 0.187.
GAAAGACA was tested, and the “PBM E-score” value was -0.00253.
In the case of CGGCAATC, the “PBM E-score” value is reported as 0.365.
In the case of ATATGAAG, the “PBM E-score” value is reported as -0.0819.
For CACTAGCC, the “PBM E-score” value was 0.0704.
For ATGTGCAA, the “PBM E-score” value was -0.197.
CACAAAAA was tested, and the “PBM E-score” value was 0.168.
With AAAGTTAG the “PBM E-score” value was -0.109.
With ATGTCGCC the “PBM E-score” value was -0.0784.
For CATACCAG, the “PBM E-score” value was -0.202.
In the case of GCTGGTTA, the “PBM E-score” value is reported as -0.124.
With AACAGCTC the “PBM E-score” value was -0.15.
With GCGCCCCA the “PBM E-score” value was 0.0946.
For AGGAAATG, the “PBM E-score” value was -0.156.
TAAGTAAA was tested, and the “PBM E-score” value was -0.147.
With AACCGCCT the “PBM E-score” value was 0.102.
In the case of ACGATTAT, the “PBM E-score” value is reported as 0.0283.
For AGCAGGTG, the “PBM E-score” value was -0.117.
CAGTTGCG was tested, and the “PBM E-score” value was 0.0774.
With AAGCTAAA the “PBM E-score” value was -0.139.
In the case of ACAGTTTG, the “PBM E-score” value is reported as -0.22.
For ATTTTGAG, the “PBM E-score” value was 0.0528.
CGGTCACC was tested, and the “PBM E-score” value was 0.0808.
For AGCGGGCA, the “PBM E-score” value was 0.0386.
With ACTGTACG the “PBM E-score” value was -0.188.
In the case of CAAGCCAG, the “PBM E-score” value is reported as -0.222.
In the case of AGCCTATC, the “PBM E-score” value is reported as -0.178.
In the case of CAAATGGA, the “PBM E-score” value is reported as -0.0675.
With CCGTACAA the “PBM E-score” value was 0.0331.
With CGAGCCAG the “PBM E-score” value was 0.096.
ATAACGTG was tested, and the “PBM E-score” value was -0.147.
With ACACTGGT the “PBM E-score” value was -0.175.
For AATCCACC, the “PBM E-score” value was -0.153.
For GCTCCATA, the “PBM E-score” value was -0.175.
For CGTGCTCC, the “PBM E-score” value was 0.234.
With ATTATCGG the “PBM E-score” value was 0.333.
For GGGAGTCA, the “PBM E-score” value was -0.00639.
In the case of ACCCCGGG, the “PBM E-score” value is reported as 0.404.
With GACAGAAC the “PBM E-score” value was -0.0438.
With CTGCAAGA the “PBM E-score” value was -0.177.
For ATAACCAT, the “PBM E-score” value was -0.0986.
In the case of ACCCCATG, the “PBM E-score” value is reported as 0.0309.
CAAAGAAA was tested, and the “PBM E-score” value was -0.141.
In the case of TTCCGGAA, the “PBM E-score” value is reported as 0.467.
GACTGACA was tested, and the “PBM E-score” value was -0.0362.
With AAATCCGT the “PBM E-score” value was 0.362.
GACTCTCC was tested, and the “PBM E-score” value was 0.181.
With AGAGTCCA the “PBM E-score” value was -0.207.
ATTCGGTG was tested, and the “PBM E-score” value was 0.125.
AAGCTACT was tested, and the “PBM E-score” value was -0.192.
In the case of CTACCGGC, the “PBM E-score” value is reported as 0.2.
With ACCTTGCG the “PBM E-score” value was -0.089.
With CCGTTGCA the “PBM E-score” value was 0.0458.
ACGTGCAG was tested, and the “PBM E-score” value was -0.268.
In the case of GTTATGAA, the “PBM E-score” value is reported as -0.155.
CAATTGAA was tested, and the “PBM E-score” value was -0.0803.
ACCTACCG was tested, and the “PBM E-score” value was -0.0379.
In the case of CGCTGAAG, the “PBM E-score” value is reported as 0.0104.
In the case of AACTCCTT, the “PBM E-score” value is reported as 0.14.
GAGTCATC was tested, and the “PBM E-score” value was -0.00515.
With CTGGATGC the “PBM E-score” value was -0.224.
ACCTCGCG was tested, and the “PBM E-score” value was -0.0559.
With CTCTTTGA the “PBM E-score” value was -0.19.
With GCCACCCA the “PBM E-score” value was -0.207.
ATCAATTG was tested, and the “PBM E-score” value was -0.059.
With ATGAAGGA the “PBM E-score” value was -0.102.
In the case of CCTGATGA, the “PBM E-score” value is reported as -0.0926.
For AAGAATCG, the “PBM E-score” value was 0.205.
For GACAACGC, the “PBM E-score” value was 0.0243.
ACTTCGTA was tested, and the “PBM E-score” value was -0.0317.
In the case of AGCGTCAG, the “PBM E-score” value is reported as -0.279.
For ACTTACCC, the “PBM E-score” value was 0.0825.
In the case of CCCACACA, the “PBM E-score” value is reported as -0.192.
In the case of ACGACCTG, the “PBM E-score” value is reported as -0.242.
In the case of TAAGCCGA, the “PBM E-score” value is reported as 0.28.
For AAGTGAGC, the “PBM E-score” value was -0.26.
GGGGATGA was tested, and the “PBM E-score” value was 0.0109.
